# Experimental data published in patent US9284335B2, “Substituted pyrido[3,2-e][1,2,4]triazolo[1,5-c]pyrimidines, pyrido[2,3-e][1,2,4]triazolo[1,5-c]pyrimidines and/or [1,2,4]triazolo[1,5-c]pteridines for treatment of central nervous system diseases and disorders” (DART NEUROSCIENCE (CAYMAN) LTD., priority 2012, dated 2016).
# Target: full-length recombinant NH-terminal GST tagged human PDE1b enzyme (Homo sapiens, UniProt Q01064)
# Assay: PDE1b inhibitory assay (IMAP TR-FRET)
# Format: biochemical
# Details: negative log of half-maximal molar inhibitory concentration; FAM-cAMP 200 nM; reported as bins; read-out: PDE1b (pEC50) (converted)
row,Structure (SMILES),EC50
1,"C[C@@H]1CN(Cc2cnc3c(c2)c2ncnn2c(=O)n3Cc2ccc(N3CCCC3=O)cc2)C[C@H](C)O1 [Example 116, 9-(((2S,6R)-2,6-Dimethylmorpholino)methyl)-6-(4-(2-oxopyrrolidin-1-yl)benzyl)pyrido[3,2-e][1,2,4]triazolo[1,5-c]pyrimidin-5(6H)-one]",> 10000 nM
2,"COc1ccc(Cn2c(=O)n3ncnc3c3cc(CN4CC(F)(F)OC(F)(F)C4)cnc32)cc1 [Example 42, 6-(4-Methoxybenzyl)-9-((2,2,6,6-tetrafluoromorpholino)methyl)pyrido[3,2-e][1,2,4]triazolo[1,5-c]pyrimidin-5(6H)-one]",100 to 1000 nM
3,"COc1ccc(Cn2c(=O)n3ncnc3c3nc(CN4CCCCC4)cnc32)cc1 [Example 164, 6-(4-Methoxybenzyl)-9-(piperidin-1-ylmethyl)-[1,2,4]triazolo[1,5-c]pteridin-5(6H)-one]",1000 to 10000 nM
4,"C[C@@H]1CN(Cc2cnc3c(c2)c2ncnn2c(=O)n3Cc2ccc(Cl)cc2F)C[C@H](C)O1 [Example 145, 6-(4-Chloro-2-fluorobenzyl)-9-(((2R,6S)-2,6-dimethylmorpholino)methyl)pyrido[3,2-e][1,2,4]triazolo[1,5-c]pyrimidin-5(6H)-one]",100 to 1000 nM
5,"COc1ccc(Cn2c(=O)n3ncnc3c3ccc(CNCC4(C)COC4)nc32)cc1 [Example 74, 6-(4-Methoxybenzyl)-8-((((3-methyloxetan-3-yl)methyl)amino)methyl)pyrido[3,2-e][1,2,4]triazolo[1,5-c]pyrimidin-5(6H)-one]",1000 to 10000 nM
6,"COc1ccc(Cn2c(=O)n3ncnc3c3cc(C(C)N4C[C@@H](C)O[C@@H](C)C4)cnc32)cc1 (stereo partly drawn) [Example 82, 9-(1-((2S,6R)-2,6-Dimethylmorpholino)ethyl)-6-(4-methoxybenzyl)pyrido[3,2-e][1,2,4]triazolo[1,5-c]pyrimidin-5(6H)-one]",< 100 nM
7,"COc1ccc(Cn2c(=O)n3ncnc3c3cc(CN(C)C4CCCCC4)cnc32)cc1 [Example 51, 9-((Cyclohexyl(methyl)amino)methyl)-6-(4-methoxybenzyl)pyrido[3,2-e][1,2,4]triazolo[1,5-c]pyrimidin-5(6H)-one]",1000 to 10000 nM
8,"C[C@@H]1CN(Cc2cnc3c(c2)c2ncnn2c(=O)n3Cc2ccccc2)C[C@H](C)O1 [Example 157, 6-Benzyl-9-(((2R,6S)-2,6-dimethylmorpholino)methyl)pyrido[3,2-e][1,2,4]triazolo[1,5-c]pyrimidin-5(6H)-one]",100 to 1000 nM
9,"COc1ccc(Cn2c(=O)n3ncnc3c3cc(CCNC(C)c4ccccc4)cnc32)cc1 (centres unmarked) [Example 29, 6-(4-Methoxybenzyl)-9-(2-((1-phenylethyl)amino)ethyl)pyrido[3,2-e][1,2,4]triazolo[1,5-c]pyrimidin-5(6H)-one]",100 to 1000 nM
10,C[C@@H]1CN(Cc2cnc3c(c2)c2ncnn2c(=O)n3Cc2cccc(Cl)c2Cl)C[C@H](C)O1 [Example 150],100 to 1000 nM
11,COc1ccc(Cn2c(=O)n3ncnc3c3cc(CN4CCC(OC)CC4)cnc32)cc1 [Example 52],100 to 1000 nM
12,"COc1ccc(Cn2c(=O)n3ncnc3c3cc(CN4CCOCC4(C)C)cnc32)cc1 [Example 38, 9-((3,3-Dimethylmorpholino)methyl)-6-(4-methoxybenzyl)pyrido[3,2-e][1,2,4]triazolo[1,5-c]pyrimidin-5(6H)-one]",100 to 1000 nM
13,"COc1ccc(Cn2c(=O)n3ncnc3c3ccc(CN4CCN(S(C)(=O)=O)CC4)nc32)cc1 [Example 77, 6-(4-Methoxybenzyl)-8-((4-(methylsulfonyl)piperazin-1-yl)methyl)pyrido[3,2-e][1,2,4]triazolo[1,5-c]pyrimidin-5(6H)-one]",100 to 1000 nM
14,"C[C@@H]1CN(Cc2cnc3c(c2)c2ncnn2c(=O)n3Cc2ccc(S(C)(=O)=O)cc2Cl)C[C@H](C)O1 [Example 120, 6-(2-Chloro-4-(methylsulfonyl)benzyl)-9-(((2S,6R)-2,6-dimethylmorpholino)methyl)pyrido[3,2-e][1,2,4]triazolo[1,5-c]pyrimidin-5(6H)-one]",> 10000 nM
